# Test results from the supplement of paper PMC8728848.
# This is one part of the list.
# B1: B1567 (Bifidobacterium sp) (protein)
# chain: MKFTTAKKAVALTGAVAMLVSVAACGSDSGKSSQPAQDSDVKEITVWAWEPSLTQVAKDFEKETGIKVDLKNVGTNTKEYTQLDNAIEAGSGAPDVAQVEYYAVPQYAIKGNLLDITDKTSGYKDFYTPGPWASVQFAGKVYGLPMDSGPMAFFYNKEVFDKAGVDAEQIKTWDQYYDAAKKIHALGDNYYITSDTGDAGFFDSMTWLAGAKPFQTSSDGSEVTVNLTEDKGVKTFTDFWQKLLDEGLLDTKTAGWSEDWFKGMVDGTIASLFTGAWMPANLANSAADGAGKWRVTQMPTADGSTTNSENGGSSLAVLASTKKADAAYQFIEYANHGAGVATRVAGGAFPADKASLEKDSFKNATTVKNADGQDVDYFGGQKYNEVLAQAAENVSSGYQFLPFEVKARTIFGDYFGKSYTGDQKLSDGVAAWQKALQDYGKDQGFTVK
# Key:
# [1] = molecular target: Neu5Gc(a2-8)Neu5Gc(a2-6)Gal(b1-4)GlcNAc; assay: glycan array binding signal (z-score within array); higher = stronger binding; details: glycan notation: IUPAC condensed, linker removed
# Outline: (§1)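 The Consortium for Functional Glycomics database supplied 3228 glycan arrays, of which those lacking an available protein sequence were dropped. The binding signal, a within-array Z-score, was averaged across arrays of the same protein sequence and across linkers. Negative scores can be read as non-binding.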
# [2] = molecular target: Neu5Gc(b2-6)Gal(b1-4)GlcNAc; assay: as above; details: glycan notation: IUPAC condensed, linker removed
# Outline: as §1
binder,measurement,setting,value
B1,glycan array binding signal (z-score),[1],-0.077
same,glycan array binding signal (z-score),[2],-0.086
